Several values for one entry are separate records, joined by “and”; a condition that tells them apart may be missing. Identical values can stand only once. This list was built around the results that the source calls inconclusive (neither active nor inactive); the mix of calls is not that of the screen. A potency beside an inconclusive call is a rough fit, not a confirmed value. Activity calls are given as the source filed them. Unless noted, the call rests on the fitted dose curve; in most records, active means well fitted curve in the direction sought with a large enough effect in the repeat runs; inconclusive means weak or mixed curves; inactive means no such curve, though single readings can be large; an effect the other way counts as inactive or inconclusive.
Tested on: not listed separately
Experiment: qHTS assay to identify small molecule antagonists of the thyroid receptor (TR) signaling pathway - cell viability counter screen (AID 743064); further: nearly all actives have a fitted effect of over 50% in size
Details: GH3.TRE-Luc viability, CellTiter-Fluor, 24 h; activity change, negative = cytotoxic: at 70.3 µM (top of the series) unless noted
Method in brief: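 Rat GH3 pituitary tumor cells stably expressing two TR response elements driving luciferase were plated, rested 4 h, then dosed with library compounds and T3 (1 nM final). After 23.5 h at 37 °C, CellTiter-Fluor was added for 30 min and fluorescence recorded.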
On the % scale 0 is the no-effect control and ±100 the full control effect; potency means the concentration at half of the fitted maximal effect; tags describe the fitted curve by direction and shape.

Question: With `CCCOC(C)=O` as the compound, how does the Potency read?
Answer: The Potency was inconclusive: 0.477 µM [rising, full curve, poor fit].

Question: For `C[C@H](CCC(=O)O)[C@H]1CC[C@H]2[C@@H]3CC[C@@H]4C[C@H](O)CC[C@]4(C)[C@H]3CC[C@]12C`, which Potency is on record?
Answer: Its Potency is active: 27.2 µM and active: 54.5 µM.

Question: Which Potency does the source give for `N#CSc1ccc(N)c([N+](=O)[O-])c1` here?
Answer: Its Potency is active: 54.8 µM.

Question: Which Potency does the source give for `CC(C)(O)c1ccccc1CC[C@@H](SCC1(CC(=O)O)CC1)c1cccc(/C=C/c2ccc3ccc(Cl)cc3n2)c1` here?
Answer: The Potency was inconclusive: 33.5 µM [cytotoxic, single point].

Question: For `CN(C)c1ccc2nc3ccc(=[N+](C)C)cc-3sc2c1`, which Potency is on record?
Answer: Its Potency is active: 15 µM and active: 26.2 µM and active: 54.5 µM.

Question: With `COC(=O)C1=C(C)NC(C)=C(C(=O)OCCN(C)Cc2ccccc2)C1c1cccc([N+](=O)[O-])c1` (stereo unspecified) as the compound, how does the Potency read?
Answer: The Potency was active: 13.3 µM and active: 19.2 µM.

Question: Which Potency does the source give for `C=C(C)C(=O)OCC(O)COc1ccc(C(C)(C)c2ccc(OCC(O)COC(=O)C(=C)C)cc2)cc1` (stereo unspecified) here?
Answer: Its Potency is inconclusive: 68.6 µM [cytotoxic, single point].

Question: For `CC(C)C(O)C(C)(C)CO` (stereo unspecified), which Potency is on record?
Answer: Its Potency is inconclusive: 28.2 µM [rising, partial curve, poor fit].

Question: For `CCc1oc2ccccc2c1C(=O)c1cc(I)c(O)c(I)c1`, which Potency is on record?
Answer: The Potency was active: 29.8 µM.

Question: With `CCC(=O)Nc1ccc(O)cc1` as the compound, how does the Potency read?
Answer: Its Potency is “inactive”.

Tested on: not listed separately
Experiment: qHTS assay to identify small molecule antagonists of the thyroid receptor (TR) signaling pathway (AID 743065); further: nearly all actives have a fitted effect of over 55% in size
Details: GH3.TRE-Luc, T3-stimulated luciferase inhibition, 23.5 h; series mostly up to 70.3 µM
Method in brief: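 Antagonism measured as loss of luciferase signal in GH3 cells stably carrying a TRE-luciferase reporter, co-treated with compound and T3 (1 nM final) for 23.5 h at 37 C. Viability was read in the same well by CellTiter-Fluor.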

Question: Which Potency does the source give for `CCN(CC)c1ccc(C(=C2C=CC(=[N+](CC)CC)C=C2)c2ccc(S(=O)(=O)O)cc2S(=O)(=O)[O-])cc1` here?
Answer: Its Potency is active: 19.3 µM.

Question: With `NC(=O)c1ccncc1` as the compound, how does the Potency read?
Answer: The Potency was “inactive”.

Question: With `c1cc(C(c2ccc(OCC3CO3)cc2)c2ccc(OCC3CO3)cc2)ccc1OCC1CO1` (stereo unspecified) as the compound, how does the Potency read?
Answer: The Potency was active: 12.2 µM.

Question: For `CCCCCCCCCCCCOC(=O)c1ccc(O)cc1`, which Potency is on record?
Answer: The Potency was active: 27.5 µM.

Question: For `O=Cc1ccccc1C=O`, which Potency is on record?
Answer: Its Potency is active: 9.44 µM and active: 2.17 µM.

Question: Which Potency does the source give for `CC(C)CCCCCCCCCCCCCCC(=O)O` here?
Answer: The Potency was inconclusive: 13.7 µM [inhibitor].

Question: Which Potency does the source give for `COC1=C(OC)C(=O)C(CCCCCCCCCCO)=C(C)C1=O` here?
Answer: The Potency was inconclusive: 33.5 µM [inhibitor, single point].

Question: With `N#CSc1ccc(N)c([N+](=O)[O-])c1` as the compound, how does the Potency read?
Answer: Its Potency is inconclusive: 30.8 µM [inhibitor, partial curve, poor fit].

Question: Which Potency does the source give for `CC(C)(O)c1ccccc1CC[C@@H](SCC1(CC(=O)O)CC1)c1cccc(/C=C/c2ccc3ccc(Cl)cc3n2)c1` here?
Answer: Its Potency is inconclusive: 33.5 µM [inhibitor, single point].

Tested on: thyroid hormone receptor (rat, GH3 cells)
Experiment: qHTS assay to identify small molecule agonists of the thyroid receptor (TR) signaling pathway (AID 743066; calls by dose curve)
Details: GH3.TRE-Luc cells, TR agonist luciferase, 24 h; activation: at 83.9 µM (top of the series) unless noted

Question: For `CCCCCCCCCCCCCC[N+](C)(C)C`, which Potency is on record?
Answer: Its Potency is inconclusive: 9.36 µM [inhibitor, partial curve, poor fit].

Question: And the activation?
Answer: Its activation is inconclusive: -9.18% [phenotype inactive].

Question: Which Potency does the source give for `CC(O)C#CC(C)O` (stereo unspecified) here?
Answer: Its Potency is “inactive”.

Question: With `O[C@@H](c1cc(C(F)(F)F)nc2c(C(F)(F)F)cccc12)[C@H]1CCCCN1` as the compound, how does the activation read?
Answer: Its activation is inconclusive: -7.59% [phenotype inactive].

Question: For `c1cc(C(c2ccc(OCC3CO3)cc2)c2ccc(OCC3CO3)cc2)ccc1OCC1CO1` (stereo unspecified), which Potency is on record?
Answer: The Potency was inconclusive: 13.7 µM [inhibitor, partial curve, poor fit].

Question: Which Potency does the source give for `CCCCCCCCCCCCOC(=O)c1ccc(O)cc1` here?
Answer: Its Potency is inconclusive: 21.8 µM [inhibitor, partial curve, poor fit].

Question: With `CC1(C)CCC(C)(C)c2cc(C(=O)Nc3ccc(C(=O)O)cc3)ccc21` as the compound, how does the Potency read?
Answer: Its Potency is inconclusive: 10.9 µM [inhibitor, partial curve, poor fit].

Question: Which activation does the source give for `O=Cc1ccccc1C=O` here?
Answer: The activation was inconclusive: -9.07% [phenotype inactive].

Question: With `CN1CCN(C2Cc3ccccc3Sc3ccc(Cl)cc32)CC1` (stereo unspecified) as the compound, how does the activation read?
Answer: The activation was inconclusive: -9.15% [phenotype inactive].

Question: For `C=C[C@](C)(O)CC[C@@H]1[C@@]2(C)CCCC(C)(C)[C@@H]2CC[C@@]1(C)O`, which Potency is on record?
Answer: The Potency was inconclusive: 19.3 µM [inhibitor, partial curve, poor fit].

Question: With `COC1=C(OC)C(=O)C(CCCCCCCCCCO)=C(C)C1=O` as the compound, how does the activation read?
Answer: The activation was inconclusive: -9.28% [phenotype inactive].

Question: Which Potency does the source give for `CC(C)(O)c1ccccc1CC[C@@H](SCC1(CC(=O)O)CC1)c1cccc(/C=C/c2ccc3ccc(Cl)cc3n2)c1` here?
Answer: The Potency was inconclusive: 2.66 µM [activator, single point].

Question: With `COC(=O)C1=C(C)NC(C)=C(C(=O)OCCN(C)Cc2ccccc2)C1c1cccc([N+](=O)[O-])c1` (stereo unspecified) as the compound, how does the activation read?
Answer: Its activation is inconclusive: -9.31% [phenotype inactive].

Question: With `O=C1NCCN1CCN1CCC(c2cn(-c3ccc(F)cc3)c3ccc(Cl)cc23)CC1` as the compound, how does the Potency read?
Answer: Its Potency is inconclusive: 10.6 µM [inhibitor, partial curve, poor fit] and inconclusive: 11.9 µM [inhibitor, partial curve, poor fit].

Same assay, conditions: GH3.TRE-Luc cells, TR agonist luciferase, 24 h; at 83.9 µM (top of the series)

Question: Which activation does the source give for `CCCCCCCCCCCCCC[N+](C)(C)C` here?
Answer: Its activation is inactive: -1.4%.

Question: For `O=Cc1ccccc1C=O`, which activation is on record?
Answer: The activation was inactive: -9.5%.

Question: For `COC(=O)C1=C(C)NC(C)=C(C(=O)OCCN(C)Cc2ccccc2)C1c1cccc([N+](=O)[O-])c1` (stereo unspecified), which activation is on record?
Answer: Its activation is inactive: -10.7%.

From PubChem BioAssay (Tox21)
